Drawing on US20250011397A1 (HOSPITAL FOR SICK CHILDREN, published 2025), this text covers Kd, koff and kon for one molecule.

This assay concerns the target T1, SARS-CoV-2 Spike, prefusion S ectodomain (BEI NR52394), His-tagged (SARS-CoV-2).
T1 construct: extracellular domain; also called S protein; S glycoprotein
Briefly: BLI, His-tagged Spike on Ni-NTA biosensors, 1:1 fit.

B1: 4A8 MB (other)
chain 1: EIVMTQSPLSSPVTLGQPASISCRSSQSLVHSDGNTYLSWLQQRPGQPPRLLIYKISNRFSGVPDRFSGSGAGTDFTLKISRVEAEDVGVYYCTQATQFPYTFGQGTKVDIKRTVAAPSVFIFPPSDEQLKSGTASVVCLLNNFYPREAKVQWKVDNALQSGNSQESVTEQDSKDSTYSLSSTLTLSKADYEKHKVYACEVTHQGLSSPVTKSFNRGECGGGGSGGGGSGGGGSGGGGSGGGGSGGGGSGGGGSGGGGSGGGGSGGGGSGGGGSGGGGSGGGGSGGGGSEVQLVESGAEVKKPGASVKVSCKVSGYTLTELSMHWVRQAPGKGLEWMGGFDPEDGETMYAQKFQGRVTMTEDTSTDTAYMELSSLRSEDTAVYYCATSTAVAGTPDLFDYYYGMDVWGQGTTVTVSSASTKGPSVFPLAPSSKSTSGGTAALGCLVKDYFPEPVTVSWNSGALTSGVHTFPAVLQSSGLYSLSSVVTVPSSSLGTQTYICNVNHKPSNTKVDKKVEPKSCGGGGSGGGGSGGGGSGGGGSGGGGSG[about 200 residues not spelt out]
chain 2: [human IgG1 Fc not spelt out]GGGGSGGGGSGGGGSGGGGSGGGGSGGGGSGGGGSGGGGSGGGGSGGGGSGGGGSGGGGSGGGGSGGGGS[human IgG1 Fc not spelt out]GGGGSGGGGSGGGGSGGGGSGGGGSGGSSQIRQNYSTDVEAAVNSLVNLYLQASYTYLSLGFYFDRDDVALEGVSHFFRELAEEKREGYERLLKMQNQRGGRALFQDIKKPAEDEW
chain 3: EIVMTQSPLSSPVTLGQPASISCRSSQSLVHSDGNTYLSWLQQRPGQPPRLLIYKISNRFSGVPDRFSGSGAGTDFTLKISRVEAEDVGVYYCTQATQFPYTFGQGTKVDIKRTVAAPSVFIFPPSDEQLKSGTASVVCLLNNFYPREAKVQWKVDNALQSGNSQESVTEQDSKDSTYSLSSTLTLSKADYEKHKVYACEVTHQGLSSPVTKSFNRGECGGGGSGGGGSGGGGSGGGGSGGGGSGGGGSGGGGSGGGGSGGGGSGGGGSGGGGSGGGGSGGGGSGGGGSEVQLVESGAEVKKPGASVKVSCKVSGYTLTELSMHWVRQAPGKGLEWMGGFDPEDGETMYAQKFQGRVTMTEDTSTDTAYMELSSLRSEDTAVYYCATSTAVAGTPDLFDYYYGMDVWGQGTTVTVSSASTKGPSVFPLAPSSKSTSGGTAALGCLVKDYFPEPVTVSWNSGALTSGVHTFPAVLQSSGLYSLSSVVTVPSSSLGTQTYICNVNHKPSNTKVDKKVEPKSCGGGGSGGGGSGGGGSGGGGSGGGGSGGGKTPDAMKAAMALEKKLNQALLDLHALGSARTDPHLCDFLETHFLDEEVKLIKKMGDHLTNLHRLGGPEAGLGEYLFERLTLRHD
B1 returned a Kd of less than 1 pM, a koff of less than 1e-07 s⁻¹ and a kon of 108000 M⁻¹ s⁻¹.
